These results are taken from ChEMBL document CHEMBL4888484, “Replenishing the malaria drug discovery pipeline: Screening and hit evaluation of the MMV Hit Generation Library 1 (HGL1) against asexual blood stage Plasmodium falciparum ,using a nano luciferase reporter read-out” (2022).

Molecules are shown by their SMILES. Out of some 150,000 compounds screened, about 540 (0.36%) showed an effect of 50% or more. The list shows a part of the results.

The test system of this experiment is Plasmodium falciparum. Kind of experiment: Primary screen in NF54 nanoGlo assay, in single point, at 2uM, 72h; a lower Z score goes with more inhibition. As to conditions: timepoint 72 hour. It counts as functional, Erythrocyte.
As for `Cc1n[nH]c(C)c1[C@H](C)N(C)C(=O)c1csc2nc(-c3ccccc3)cn12`, the % Inhibition (usually the relative decrease from the control value, in per cent) is reported as -13% and the Z score was found to be 1.16.
For `Cc1cnn(CCNC(=O)c2cn(C)c(C)cc2=O)c1`, in that order: -7% and 1.09.
`CC(C)[C@@](C)(C#N)NC(=O)CN(C)C1CCCCC1`: the “% Inhibition” value is reported as 0% and the Z score is listed as -0.05.
As for `Cc1cc(COCCc2c[nH]nn2)on1`, the “% Inhibition” value is given as -11% and the Z score was determined as 1.13.
On to `Cc1ncc(Cl)c(C(=O)N2C[C@H](C)[C@@](O)(C3CC3)C2)n1`, for which the “% Inhibition” value is recorded as -11% and the Z score stood at 1.97.
For `Cc1ccc(C(=O)N2CCN(c3nc(-c4ccco4)nc4ccc(C)cc34)CC2)cc1`, in that order: -1% and 0.07.
As to `O=C(CCN1CCCCO1)N[C@H]1CCOC[C@@H]1Oc1ccccn1`, the “% Inhibition” value was -8% and the Z score was found to be 1.26.
The like results for `COc1nccnc1O[C@H]1CCN(C(=O)c2ccc3ncsc3c2)C1` were, in that order, -16% and 1.81.
The like results for `CN(CCc1ccccc1)Cc1cc(C(=O)NCCO)no1` were, in that order, -11% and 1.63.
On to `COc1ccc(-n2nc(C)c(CCC(=O)N3CCOCC3)c2Oc2ccc(F)cc2)cc1`, for which the “% Inhibition” value is given as 5% and the Z score is reported as -0.49.
Take `CCn1nc([C@H]2CCOC2)nc1-c1n[nH]c2c1CN(C)CC2`: the “% Inhibition” value is -9% and the Z score is 1.85.
On to `COc1ccc(CNC(=O)N2C3CCC2CC(=C2CC2)C3)cc1OC`, for which the “% Inhibition” value came to 8% and the Z score is reported as -1.06.
For `O=C(CCc1ccc(-c2ccc(Cl)cc2)[nH]1)NCc1cnn2cccnc12`, in that order: -28% and 2.49.
The like results for `COc1ccc(CC[C@H](C)NC(=O)CCNc2ncccn2)cc1` were, in that order, 4% and -0.49.
Take `O=C(NCCCOCC(F)(F)F)N[C@H]1CCCC12CCOCC2`: the “% Inhibition” value was -1% and the Z score turned out to be 0.13.
The like results for `Cc1ccc(Nc2scnc2C(=O)O)cc1` were, in that order, -5% and 0.68.
On to `CCCC(=O)N(CC1CCN(C2Cc3ccccc3C2)CC1)C[C@H]1CCCO1`, for which the “% Inhibition” value is recorded as -8% and the Z score came to 1.51.
`COc1ccc(CCNC(=O)c2c(C)c3c(n2Cc2cccc(C)c2)CCCC3)cc1OC`: the “% Inhibition” value is reported as -1% and the Z score is reported as 0.07.
As for `Cc1ccc(N(Cc2ccco2)S(=O)(=O)N(C)CC2CC2)cc1`, the “% Inhibition” value is -20% and the Z score was 1.68.
For `Cc1nnc2sc(-c3ccc(CNC(=O)c4ccc(C(C)(C)C)cc4)cc3)nn12`, in that order: -7% and 0.96.
For `O=S(=O)(NC(=C(F)F)C(F)(F)F)c1ccccc1`, in that order: -3% and 0.49.
The like results for `O=C(c1ccc(Oc2ccccc2)o1)N1CC[C@@H](CO)[C@@H](O)C1` were, in that order, 3% and -0.35.
As to `c1ccc(-n2nc(C3CC3)cc2-c2nnc(-c3ccccn3)o2)cc1`, the “% Inhibition” value is recorded as -10% and the Z score is 1.65.
